The list shows a part of the results. These are further read-outs of the screen, such as a control signal, another cell line or another target. No call is given for them. The list favours compounds with an active or inconclusive main result.

The assay can be described thus: inhibitors of hepatocyte lipid droplet formation, primary screen, imaging, high-throughput imaging, BODIPY stain (AID 1656).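 Note: cells counted across two imaged fields per well.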 As to conditions: AML12 mouse hepatocytes, oleate lipid droplets, measured here: cell count, cytotoxicity flag, at 6.5 µM. Put shortly: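 Assay system: AML12 hepatocytes (mouse); Probe or stimulus: oleic acid at 100 µM to induce lipid droplet formation; Dosing: compound at 6.5 µM only; Schedule: compound with oleate, overnight; Detection: fluorescence imaging, 20x objective, two fields per well; Measure: % inhibition of lipid droplet signal.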
`CCC(C)N(CC(=O)Nc1cccc(C)c1C)C(=O)CCl` (centres undefined) yielded a cell count of 140 cells.
The result for `Cc1cc(O)c(C)c(O)c1/C=N/NC(=O)c1cccnc1` reads 796 cells.
Take `COc1ccc(Nc2nc(-c3c(C)nc4ncccn34)cs2)cc1`: the cell count came to 223 cells.
`CC(C)Oc1ccc(C(=O)Nc2ccc(N3CCN(C(=O)c4ccco4)CC3)cc2)cc1` gave a cell count of 808 cells.
`O=[N+]([O-])c1cccc(Oc2cnccn2)c1` had a cell count of 226 cells.
Regarding `O=C(Nc1ncc(Cc2ccc(SC(F)F)cc2)s1)c1ccc(OC(F)F)cc1`, the cell count amounted to 56 cells.
Take `CCO[C@H]1OC(C(=O)NCc2nc3ccccc3[nH]2)=C[C@@H](C2CC2)[C@@H]1CCCO`: the cell count came out at 272 cells.
`CCn1cc(C(=O)NCc2ccc(Cl)cc2)c(=O)c2cc(S(=O)(=O)N(C)C)ccc21` gave a cell count of 822 cells.
Consider `CC(=O)Nc1ccc(-c2csc(NC(=O)Cc3cccc(F)c3)n2)cc1`, for which the cell count came out at 737 cells.
The figure for `Cc1ccc(NC(=O)CN(C)CC(=O)Nc2ccc(N3CCOCC3)cc2)c(C)c1` is 521 cells; for `COc1ccccc1C1=NOC(COc2ccc3c(C)cc(=O)oc3c2)C1` (centres undefined) it is 208 cells.
Regarding `COc1ccc(C(=O)OCC(=O)NC(C)CCc2ccccc2)cc1OC` (centres undefined), the cell count amounted to 808 cells.
`CCN(CC)c1ccc(NC(=O)c2ccc3c(c2)c(C)c(C)n3C)cc1` displayed a cell count of 664 cells.
As for `CCCCCOC(=O)c1[nH]c2c(c1C)C(=O)CC(c1ccco1)C2` (centres undefined), the cell count was determined as 135 cells.
The figure for `CS(=O)(=O)Nc1ccc(C(=O)Nc2ccccc2C(=O)NCc2ccco2)cc1` is 693 cells; for `Cc1cc(-n2cnnn2)cc(C)c1S(=O)(=O)NCCOc1ccccc1` it is 634 cells; for `Cc1cc(C)c(C(=O)NC2CCCc3c2cnn3-c2cccc(C)c2C)o1` (centres undefined) it is 710 cells.
`C=CCOc1ccc(-c2nc3c(c(=O)[nH]c(=O)n3Cc3ccccc3)n2CCCOC)cc1` displayed a cell count of 742 cells.
The compound `CCOc1ccccc1NC(=O)C1CCN(C(=O)NCc2ccccc2)CC1` came in with a cell count of 769 cells.
`CCN1CCN(c2cc(C)c3cc(NC(=O)CCC(=O)Nc4ccc(OC)cc4OC)ccc3n2)CC1` showed a cell count of 809 cells.
As to `O=C(c1cc([N+](=O)[O-])ccc1N1CCOCC1)N1CCN(c2ccccc2)CC1`, the cell count stood at 266 cells.
The figure for `CCOc1ccc(C(=O)OCC(=O)Nc2ccc(SC(F)F)cc2)cc1OCC` is 670 cells; for `COc1cc(-c2c(-c3cc(OC)c(OC)c(OC)c3)noc2C)ccc1F` it is 291 cells.
Turning to `Cc1ccc(S(=O)(=O)NCc2ccc(C(=O)NC3CC3)cc2)cc1`, the cell count was 736 cells.
In the case of `C=CCN(C(=O)c1csnn1)C(C(=O)NC1CCCCC1)c1ccccc1F` (centres undefined), the cell count turned out to be 672 cells.
The figure for `COc1cccc(/C=N/N2CCN(C3c4ccccc4-c4ccccc43)CC2)c1O` is 718 cells; for `CCN(CC)C(=O)CC(c1ccc(OC)cc1)c1c(OC)cc(OC)c2ccc(=O)oc12` (centres undefined) it is 712 cells.
`Cc1cc(C)cc(NC(=O)N2CCC(C(=O)c3ccc(F)cc3)CC2)c1`: the cell count came out at 700 cells.
`O=C(c1ccc(Cl)cc1)C1CCN(C(=O)NC2CCCCC2)CC1` yielded a cell count of 659 cells.
Turning to `N#CC(c1ccc(Cl)cc1)c1ccc2c(C(F)(F)F)cc(C(F)(F)F)nc2n1` (centres undefined), the cell count is 530 cells.
Take `CCCCc1ccc(NC(=O)CSc2nnc(C)c(=O)n2N)cc1`: the cell count stood at 842 cells.
`CCCCCC(O)(c1ccc(OCC)cc1)C(CN1CCOCC1)c1ccccc1` (centres undefined): the cell count came to 822 cells.
Turning to `CCOc1ccc(CCNC(=O)COc2cc(=O)n(C)c3ccccc23)cc1OCC`, the cell count came to 736 cells.
The result for `O=C(CCNC(=O)C1CCN(S(=O)(=O)c2ccccc2)CC1)NCCc1cccc(F)c1` reads 680 cells.
Regarding `CCOC(=O)C1CCC(CN(Cc2ccccc2)S(=O)(=O)c2ccc([N+](=O)[O-])cc2)CC1` (centres undefined), the cell count was determined as 666 cells.
`O=C1c2ccccc2-c2onc3c(Oc4ccccc4)cc(O)c1c23` returned a cell count of 757 cells.
As for `O=C(Nc1nc(-c2cccs2)c(-c2cccs2)s1)C1CCCC1`, the cell count was found to be 610 cells.
`CCc1ccc(C(=O)CSc2nc3cc(S(=O)(=O)N4CCOCC4)ccc3n2CC)cc1` showed a cell count of 598 cells.
As for `COC(=O)c1ccccc1NC(=O)c1cccc(NC(=O)c2ccc(Br)o2)c1C`, the cell count was 729 cells.
Consider `COc1ccc(C(C(=O)NC(C)(C)C)N(Cc2ccco2)C(=O)CCC(=O)Nc2cc(C)on2)cc1` (centres undefined), for which the cell count came out at 735 cells.
On to `COc1ccc(OC)c(NC(=O)c2cc3oc4ccccc4c3cc2O)c1`, for which the cell count was 711 cells.
As to `C[C@H](NC(=O)[C@@H]1CSC2c3ccccc3C(=O)N21)C(=O)NCCc1ccc(F)cc1` (some centres undefined), the cell count is 213 cells.
`Cc1ccccc1OCCc1c(C)[nH]c(=S)[nH]c1=O` yielded a cell count of 261 cells.
`CCc1ccc(OCC(=O)N/N=C(\C)c2ccc(-n3ccnc3)cc2)cc1`: the cell count was determined as 725 cells.
As for `COc1cccc2sc(Nc3nc(-c4ccncc4)cs3)nc12`, the cell count turned out to be 179 cells.
Take `CCOc1ccccc1Nc1nnc(SC(C)C(=O)Nc2nc(-c3ccccc3)cs2)s1` (centres undefined): the cell count was determined as 626 cells.
For the compound `COC(=O)[C@H](Cc1c[nH]c2ccccc12)NC(=O)CCCc1c[nH]c2ccccc12`, the cell count was 777 cells.
`CCOc1ccc(CCNC(=O)Cn2cccc2C(=O)c2ccccc2C)cc1OCC` displayed a cell count of 626 cells.
On to `O=C(/C=C/c1ccc(Cl)cc1)NC(=S)Nc1ccc(NC(=O)c2ccco2)cc1`, for which the cell count was 649 cells.
As to `O=C(/C=C\c1ccco1)Nc1cc([N+](=O)[O-])ccc1F`, the cell count amounted to 37 cells.
Compound `Cc1c(S(=O)(=O)c2ccccn2)c(N)n(Cc2ccccc2)c1C` registered a cell count of 752 cells.
Turning to `COc1cc(N2CCCC2)c(OC)cc1/C=C(/C#N)c1ccc(F)cc1`, the cell count amounted to 729 cells.
`COc1ccccc1NS(=O)(=O)c1cccc(-n2c(O)c(C=Nc3ccccc3C(=O)O)c3ccccc3c2=O)c1` came in with a cell count of 690 cells.
`CCn1cc([N+](=O)[O-])c(C(=O)N2N=C(c3ccc4ccccc4c3)CC2c2ccccc2O)n1` (centres undefined): the cell count came to 753 cells.
`CCOC(=O)C1CCN(C(=O)C2(NC(=O)Nc3ccc(F)cc3F)CCCCC2)CC1` showed a cell count of 753 cells.
On to `NC(=O)CC(NC(=O)Cc1cccc2ccccc12)c1ccc(N2CCN(c3ccc(F)cc3)CC2)c([N+](=O)[O-])c1` (centres undefined), for which the cell count was determined as 670 cells.
Regarding `Cc1ccc(Cn2nc(C)c(NC(=O)C3(C)CC3(Br)Br)c2C)cc1` (centres undefined), the cell count was 707 cells.
The figure for `COc1ccc(OC)c(CNC(=O)CCCc2cn(C)c3ccccc23)c1` is 728 cells; for `CCOc1cc(CNC(=O)CCCn2c(=O)c3cccn3c3cccnc32)cc(OCC)c1OCC` it is 666 cells.
For the compound `CCn1cc(C(=O)NCCCN(CC(C)C)CC(C)C)c(=O)c2cc(S(=O)(=O)N(C)C3CCCCC3)ccc21`, the cell count was determined as 679 cells.
In the case of `O=C(CSCC(=O)N1CCCCC1)Nc1nc(-c2ccccc2)c(-c2ccccc2)s1`, the cell count was 681 cells.
The result for `c1ccc(-c2nc(N3CCOCC3)cc(N3CCOCC3)n2)cc1` reads 620 cells.
Compound `Cc1ccc(N2C(N)=C(C#N)C(c3cc(CN4CCOCC4)cs3)C3=C2CC(C)(C)CC3=O)cc1` (centres undefined) had a cell count of 673 cells.
With `COc1ccc(/C=C\C(=O)NCc2ccc3[nH]c(C)cc3c2)cc1OC`, the cell count came to 753 cells.
`CCc1cccc(C)c1NC(=S)NCc1cccn1C` registered a cell count of 202 cells.
On to `CCCCCCN(C(=O)CCCCCN1C(=O)NC(c2ccccc2)C(C(=O)OCc2ccccc2)=C1C)C(C(=O)NCCCC)c1ccc(OCC(=O)OC)c(C(=O)OC)c1` (centres undefined), for which the cell count is 701 cells.
`O=C(CN1CCCC1)Nc1ccc(S(=O)(=O)N2CCCCC2)cc1` gave a cell count of 17 cells.
`CCCOc1cccc(C(=O)NCCNC(=O)c2ccc(C)nc2)c1` displayed a cell count of 715 cells.
In turn, `Cc1ccc(C(=O)c2cc([N+](=O)[O-])ccc2N2CCCCC2)c(C)c1` displayed a cell count of 51 cells.
The result for `Cc1c(Cl)sn(-c2ccc(Cl)cc2)c1=O` reads 334 cells.
The result for `COc1cc(NC(=O)c2cccs2)c(OC)cc1NC(=O)CCC(=O)Nc1ccc2ncccc2c1` reads 668 cells.
Compound `COc1ccc(NC(=O)Cc2c(Sc3ccccc3)c3ccccc3n2C)cc1` gave a cell count of 711 cells.
Regarding `CCOc1ccc(/C(O)=C2/C(=O)C(=O)N(c3ncccn3)C2c2ccccc2)cc1` (centres undefined), the cell count is 92 cells.
Take `COc1ccc(CCNC(=O)Cc2cccc(C(F)(F)F)c2)cc1OC`: the cell count was determined as 742 cells.
Take `Cc1nc2ccccc2nc(=O)c1NNc1ccccc1`: the cell count was found to be 790 cells.
As to `N=c1scc(-c2ccccc2)n1/N=C/c1ccco1`, the cell count came to 616 cells.
In the case of `O=[N+]([O-])c1ccccc1/C=C/C=N/Nc1ccc(S(=O)(=O)Nc2ccc(Cl)cc2)cc1[N+](=O)[O-]`, the cell count was 674 cells.
`CCOc1ccc(NC(=O)CCSc2nc3c(c(CC)c2C#N)C(=O)CC(C)(C)C3)cc1`: the cell count was 788 cells.
The result for `Cc1cc(OCC(=O)NC2CC2)c2c(C)cc(=O)oc2c1` reads 769 cells.
The figure for `COc1ccccc1NC1=C(N2CCCCC2)C(=O)c2ccccc2C1=O` is 660 cells.
In turn, `COc1ccc([N+](=O)[O-])cc1NC(=O)C(C)N(C)Cc1ccc(Br)cc1` (centres undefined) registered a cell count of 272 cells.
`FC(F)(F)COc1nc(N2CCOCC2)nc(N(c2ccccc2)c2ccccc2)n1`: the cell count came to 706 cells.
On to `CCOC(=O)Nc1nc(-c2ccccc2)c(C(=O)c2ccc(Cl)cc2)s1`, for which the cell count was determined as 268 cells.
In turn, `COc1ccc(/C=C/C(=O)c2cc(F)ccc2OC(=O)c2ccccc2C)cc1OC` showed a cell count of 292 cells.
With `CCC(C)(C)n1nnnc1C(c1cc2ccc(C)cc2[nH]c1=O)N(Cc1cccnc1)Cc1ccco1` (centres undefined), the cell count stood at 722 cells.
In turn, `CS(=O)(=O)N(CC(=O)Nc1cccc(Br)c1)Cc1ccccc1` registered a cell count of 769 cells.
In the case of `O=C(Nc1ccc2c(c1)OCO2)c1cc2ncc(Br)cn2n1`, the cell count is 804 cells.
Consider `CCCNC1=CC(=O)CC(C)(C)C1`, for which the cell count stood at 765 cells.
`CCOc1ccccc1-c1cc(C(=O)N/N=C/c2ccc(O)c(OC)c2)c2ccccc2n1` displayed a cell count of 711 cells.
As to `COc1ccc(C(C(=O)NC(C)(C)C)N(Cc2ccc(C)cc2)C(=O)CCC(=O)Nc2cc(C)on2)cc1` (centres undefined), the cell count is 567 cells.
On to `Cc1ccccc1N/C(=N/S(=O)(=O)c1ccccc1)c1ccc(F)cc1`, for which the cell count came out at 662 cells.
With `COc1ccc(-n2nnnc2-c2cccc(OC)c2)cc1`, the cell count came out at 293 cells.
Take `Cc1ccc(/C=N/NC(=O)c2n[nH]c3c2CCCC3)cc1`: the cell count is 87 cells.
In turn, `Cc1ccccc1OCc1n(CC(=O)OC2CC(C)CCC2C(C)C)c2ccccc2[n+]1C` (centres undefined) gave a cell count of 710 cells.
Turning to `CCOc1ccc(CC(=O)Nc2ccc(NC(=O)c3ccco3)cc2)cc1OCC`, the cell count is 724 cells.
Compound `CCc1ccc(/C=N/NC(=O)c2cc(-c3ccncc3)nc3ccccc23)s1` had a cell count of 239 cells.
For the compound `CCc1ccc(NS(=O)(=O)c2cc3c(cc2C)n(C)c(=O)c(=O)n3C)cc1`, the cell count stood at 769 cells.
For the compound `Cc1c(C(=O)OCC(C)C)[nH]c2c1C(=O)CC(c1ccco1)C2` (centres undefined), the cell count was 268 cells.
With `CCOc1ccc(CCNC(=O)Nc2cccc(OC)c2)cc1OCC`, the cell count turned out to be 805 cells.
